# From the supplement of paper PMC8728848
# The list shows a part of the results.
# B1: SP16664B-bot-474-25-474 (Bacteroides ovatus) (protein)
# chain: CEEDIEIGNKIDESSYLASTQLSGLLLDENTNKNSSVIELRNNEYSTNVVFRLSKLPQKGVDVQIAVEESYAAIYNTIHETDFEVFPAANVKIANNGTFVLAPDDKVTPSVKVTLTAFDGMEEDKTYIVPLTVTSSTEGVTFTETSKHMVLLVQDYRNKPNTNKGEDAVQTVLYFEVNDTNPLNALEFLTESGKYFFDHIVLFAANINWDPEKQRVYLANNENVQFLLDNNDKYLQPLRKAGMKIIISILGNHDEAGVAQLSDMGAREFARELAAYCRAYNLDGVAFDDEYSNSPDLSNPWLASPSAYAGSRLMYECKAVMPEKIVSLYNLGNMYSSSLQVIDGIEPGQYCDYAVADYGGAAGPGTGMTLKQCAGMSIELRRGSGNSSESTARSRKEAGYGYYMFFALDPSLYGSQVYRCQSVCKGLYDETLVYPSYYYKKNSTEREAIN
# Experiments:
# Test in all cases: glycan array binding signal (z-score within array); higher = stronger binding
# Details in all cases: glycan notation: IUPAC condensed, linker removed
# Gal(a1-3)Gal(b1-4)GlcNAc = molecular target: Gal(a1-3)Gal(b1-4)GlcNAc
# Method in brief: (§1)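 Glycan array binding is given as a within-array Z-score, which can be read as non-binding when negative. The arrays, 3228 of them, came from the Consortium for Functional Glycomics database and were retained only where the protein sequence was available. Z-scores were averaged across arrays of the same protein sequence at different concentrations or buffers and across linkers.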
# [1] = molecular target: Gal(a1-3)Gal(b1-4)GlcNAc(b1-2)Man
# Method in brief: as §1
# [2] = molecular target: Gal(a1-3)Gal(b1-4)GlcNAc(b1-2)Man(a1-3)[Gal(a1-3)Gal(b1-4)GlcNAc(b1-2)Man(a1-6)]Man(b1-4)GlcNAc(b1-4)GlcNAc
# Method in brief: as §1
# [3] = molecular target: Gal(a1-3)Gal(b1-4)GlcNAc(b1-3)GalNAc
# Method in brief: as §1
# [4] = molecular target: Gal(a1-3)Gal(b1-4)GlcNAc(b1-6)GalNAc
# Method in brief: as §1
# [5] = molecular target: Gal(a1-3)Gal(b1-4)[Fuc(a1-3)]GlcNAc
# Method in brief: as §1
# [6] = molecular target: Gal(a1-3)Gal(b1-4)[Fuc(a1-3)]GlcNAc(b1-2)Man(a1-3)[Gal(a1-3)Gal(b1-4)[Fuc(a1-3)]GlcNAc(b1-2)Man(a1-6)]Man(b1-4)GlcNAc(b1-4)GlcNAc
# Method in brief: as §1
# Gal(a1-3)GalNAc = molecular target: Gal(a1-3)GalNAc
# Method in brief: as §1
# [7] = molecular target: Gal(a1-3)[Gal(a1-4)]Gal(b1-4)GlcNAc
# Method in brief: as §1
# [8] = molecular target: Gal(a1-4)Gal(b1-3)GlcNAc(b1-2)Man(a1-3)[Gal(a1-4)Gal(b1-3)GlcNAc(b1-2)Man(a1-6)]Man(b1-4)GlcNAc(b1-4)GlcNAc
# Method in brief: as §1
# Gal(a1-4)Gal(b1-4)Glc = molecular target: Gal(a1-4)Gal(b1-4)Glc
# Method in brief: as §1
# Gal(a1-4)Gal(b1-4)GlcNAc = molecular target: Gal(a1-4)Gal(b1-4)GlcNAc
# Method in brief: as §1
# [9] = molecular target: Gal(a1-4)Gal(b1-4)GlcNAc(b1-2)Man(a1-3)[Gal(a1-4)Gal(b1-4)GlcNAc(b1-2)Man(a1-6)]Man(b1-4)GlcNAc(b1-4)GlcNAc
# Method in brief: as §1
# [10] = molecular target: Gal(a1-4)Gal(b1-4)GlcNAc(b1-3)Gal(b1-4)Glc
# Method in brief: as §1
# Gal(a1-4)GlcNAc = molecular target: Gal(a1-4)GlcNAc
# Method in brief: as §1
# Gal(a1-6)Glc = molecular target: Gal(a1-6)Glc
# Method in brief: as §1
# Gal(b1-2)Gal = molecular target: Gal(b1-2)Gal
# Method in brief: as §1
# Gal(b1-3)Gal = molecular target: Gal(b1-3)Gal
# Method in brief: as §1
# Gal(b1-3)Gal(b1-4)GlcNAc = molecular target: Gal(b1-3)Gal(b1-4)GlcNAc
# Method in brief: as §1
# Gal(b1-3)GalNAc = molecular target: Gal(b1-3)GalNAc
# Method in brief: as §1
# [11] = molecular target: Gal(b1-3)GalNAc(a1-3)[Fuc(a1-2)]Gal(b1-4)Glc
# Method in brief: as §1
# [12] = molecular target: Gal(b1-3)GalNAc(a1-3)[Fuc(a1-2)]Gal(b1-4)GlcNAc
# Method in brief: as §1
# Gal(b1-3)GalNAc(b1-3)Gal = molecular target: Gal(b1-3)GalNAc(b1-3)Gal
# Method in brief: as §1
# [13] = molecular target: Gal(b1-3)GalNAc(b1-3)Gal(a1-4)Gal(b1-4)Glc
# Method in brief: as §1
# [14] = molecular target: Gal(b1-3)GalNAc(b1-4)Gal(b1-4)Glc
# Method in brief: as §1
# [15] = molecular target: Gal(b1-3)GalNAc(b1-4)[Neu5Ac(a2-3)]Gal(b1-4)Glc
# Method in brief: as §1
# Gal(b1-3)GlcNAc = molecular target: Gal(b1-3)GlcNAc
# Method in brief: as §1
# [16] = molecular target: Gal(b1-3)GlcNAc(a1-3)Gal(b1-4)GlcNAc
# Method in brief: as §1
# [17] = molecular target: Gal(b1-3)GlcNAc(a1-6)Gal(b1-4)GlcNAc
# Method in brief: as §1
# Gal(b1-3)GlcNAc(b1-2)Man = molecular target: Gal(b1-3)GlcNAc(b1-2)Man
# Method in brief: as §1
# [18] = molecular target: Gal(b1-3)GlcNAc(b1-2)Man(a1-3)[Gal(b1-3)GlcNAc(b1-2)Man(a1-6)]Man(b1-4)GlcNAc(b1-4)GlcNAc
# Method in brief: as §1
# [19] = molecular target: Gal(b1-3)GlcNAc(b1-2)Man(a1-3)[Gal(b1-3)GlcNAc(b1-2)Man(a1-6)]Man(b1-4)GlcNAc(b1-4)[Fuc(a1-6)]GlcNAc
# Method in brief: as §1
# [20] = molecular target: Gal(b1-3)GlcNAc(b1-2)Man(a1-3)[GlcNAc(b1-4)][Gal(b1-3)GlcNAc(b1-2)Man(a1-6)]Man(b1-4)GlcNAc(b1-4)GlcNAc
# Method in brief: as §1
# [21] = molecular target: Gal(b1-3)GlcNAc(b1-2)[Gal(b1-3)GlcNAc(b1-6)]Man(a1-6)[Gal(b1-3)GlcNAc(b1-2)Man(a1-3)]Man(b1-4)GlcNAc(b1-4)GlcNAc
# Method in brief: as §1
# [22] = molecular target: Gal(b1-3)GlcNAc(b1-3)Gal(b1-3)GlcNAc
# Method in brief: as §1
# [23] = molecular target: Gal(b1-3)GlcNAc(b1-3)Gal(b1-4)Glc
# Method in brief: as §1
# [24] = molecular target: Gal(b1-3)GlcNAc(b1-3)Gal(b1-4)GlcNAc
# Method in brief: as §1
# [25] = molecular target: Gal(b1-3)GlcNAc(b1-3)Gal(b1-4)GlcNAc(b1-2)Man(a1-3)[Gal(b1-3)GlcNAc(b1-3)Gal(b1-4)GlcNAc(b1-2)Man(a1-6)]Man(b1-4)GlcNAc(b1-4)GlcNAc
# Method in brief: as §1
# [26] = molecular target: Gal(b1-3)GlcNAc(b1-3)Gal(b1-4)GlcNAc(b1-2)[Gal(b1-3)GlcNAc(b1-3)Gal(b1-4)GlcNAc(b1-6)]Man(a1-6)[Gal(b1-3)GlcNAc(b1-3)Gal(b1-4)GlcNAc(b1-2)Man(a1-3)]Man(b1-4)GlcNAc(b1-4)[Fuc(a1-6)]GlcNAc
# Method in brief: as §1
# [27] = molecular target: Gal(b1-3)GlcNAc(b1-3)Gal(b1-4)GlcNAc(b1-3)Gal(b1-4)GlcNAc(b1-2)[Gal(b1-3)GlcNAc(b1-3)Gal(b1-4)GlcNAc(b1-3)Gal(b1-4)GlcNAc(b1-6)]Man(a1-6)[Gal(b1-3)GlcNAc(b1-3)Gal(b1-4)GlcNAc(b1-3)Gal(b1-4)GlcNAc(b1-2)Man(a1-3)]Man(b1-4)GlcNAc(b1-4)[Fuc(a1-6)]GlcNAc
# Method in brief: as §1
# [28] = molecular target: Gal(b1-3)GlcNAc(b1-3)Gal(b1-4)GlcNAc(b1-6)[Gal(b1-3)GlcNAc(b1-3)]Gal(b1-4)Glc
# Method in brief: as §1
# [29] = molecular target: Gal(b1-3)GlcNAc(b1-3)Gal(b1-4)[Fuc(a1-3)]GlcNAc
# Method in brief: as §1
# [30] = molecular target: Gal(b1-3)GlcNAc(b1-3)Gal(b1-4)[Fuc(a1-3)]GlcNAc(b1-6)[Gal(b1-3)GlcNAc(b1-3)]Gal(b1-4)Glc
# Method in brief: as §1
# [31] = molecular target: Gal(b1-3)GlcNAc(b1-3)GalNAc
# Method in brief: as §1
# [32] = molecular target: Gal(b1-3)GlcNAc(b1-6)Gal(b1-4)GlcNAc
# Method in brief: as §1
binder,measurement,setting,value
B1,glycan array binding signal (z-score),Gal(a1-3)Gal(b1-4)GlcNAc,-0.691
same,glycan array binding signal (z-score),[1],-0.237
same,glycan array binding signal (z-score),[2],2.23
same,glycan array binding signal (z-score),[3],0.386
same,glycan array binding signal (z-score),[4],0.21
same,glycan array binding signal (z-score),[5],-0.366
same,glycan array binding signal (z-score),[6],1.65
same,glycan array binding signal (z-score),Gal(a1-3)GalNAc,-0.504
same,glycan array binding signal (z-score),[7],-0.405
same,glycan array binding signal (z-score),[8],1.04
same,glycan array binding signal (z-score),Gal(a1-4)Gal(b1-4)Glc,0.803
same,glycan array binding signal (z-score),Gal(a1-4)Gal(b1-4)GlcNAc,-0.079
same,glycan array binding signal (z-score),[9],0.187
same,glycan array binding signal (z-score),[10],-0.137
same,glycan array binding signal (z-score),Gal(a1-4)GlcNAc,-0.657
same,glycan array binding signal (z-score),Gal(a1-6)Glc,-0.124
same,glycan array binding signal (z-score),Gal(b1-2)Gal,0.102
same,glycan array binding signal (z-score),Gal(b1-3)Gal,-0.262
same,glycan array binding signal (z-score),Gal(b1-3)Gal(b1-4)GlcNAc,-0.352
same,glycan array binding signal (z-score),Gal(b1-3)GalNAc,-0.34
same,glycan array binding signal (z-score),[11],-0.096
same,glycan array binding signal (z-score),[12],-0.291
same,glycan array binding signal (z-score),Gal(b1-3)GalNAc(b1-3)Gal,-0.2
same,glycan array binding signal (z-score),[13],-0.467
same,glycan array binding signal (z-score),[14],-0.409
same,glycan array binding signal (z-score),[15],-0.167
same,glycan array binding signal (z-score),Gal(b1-3)GlcNAc,-0.12
same,glycan array binding signal (z-score),[16],-0.335
same,glycan array binding signal (z-score),[17],-0.477
same,glycan array binding signal (z-score),Gal(b1-3)GlcNAc(b1-2)Man,0.003
same,glycan array binding signal (z-score),[18],0.238
same,glycan array binding signal (z-score),[19],0.482
same,glycan array binding signal (z-score),[20],0.138
same,glycan array binding signal (z-score),[21],0.525
same,glycan array binding signal (z-score),[22],-0.39
same,glycan array binding signal (z-score),[23],-0.23
same,glycan array binding signal (z-score),[24],-0.418
same,glycan array binding signal (z-score),[25],-0.246
same,glycan array binding signal (z-score),[26],0.052
same,glycan array binding signal (z-score),[27],0.528
same,glycan array binding signal (z-score),[28],0.146
same,glycan array binding signal (z-score),[29],-0.407
same,glycan array binding signal (z-score),[30],-0.257
same,glycan array binding signal (z-score),[31],-0.248
same,glycan array binding signal (z-score),[32],-0.428
